“And” between values parts separate entries of the source, which are not always exact repeats. Equal entries are not always repeated. Out of some 360,000 compounds screened, about 16,000 (4.4%) were called active. Inconclusive means that the source gave no clear call. Such entries were picked first, then a sample of the others. Calls follow the shape of the dose curve; as a rule, active = well fitted inhibition curve with a large enough effect; inconclusive = small, poorly fitted or top-dose-only effect; inactive = no such curve, though single readings can be large or run the other way. A potency beside an inconclusive call is a rough fit, not a confirmed value.
These compounds were tested against Bromodomain adjacent to zinc finger domain protein 2B (Homo sapiens) (UniProt Q9UIF8) (assay: qHTS Assay for Inhibitors of BAZ2B). Conditions: AlphaScreen BAZ2B-H3K14Ac peptide displacement; series mostly up to 114 µM.
UniProt Q9UIF8, sequence (Q9UIF8 whole entry, looked up, the tested form may be a part): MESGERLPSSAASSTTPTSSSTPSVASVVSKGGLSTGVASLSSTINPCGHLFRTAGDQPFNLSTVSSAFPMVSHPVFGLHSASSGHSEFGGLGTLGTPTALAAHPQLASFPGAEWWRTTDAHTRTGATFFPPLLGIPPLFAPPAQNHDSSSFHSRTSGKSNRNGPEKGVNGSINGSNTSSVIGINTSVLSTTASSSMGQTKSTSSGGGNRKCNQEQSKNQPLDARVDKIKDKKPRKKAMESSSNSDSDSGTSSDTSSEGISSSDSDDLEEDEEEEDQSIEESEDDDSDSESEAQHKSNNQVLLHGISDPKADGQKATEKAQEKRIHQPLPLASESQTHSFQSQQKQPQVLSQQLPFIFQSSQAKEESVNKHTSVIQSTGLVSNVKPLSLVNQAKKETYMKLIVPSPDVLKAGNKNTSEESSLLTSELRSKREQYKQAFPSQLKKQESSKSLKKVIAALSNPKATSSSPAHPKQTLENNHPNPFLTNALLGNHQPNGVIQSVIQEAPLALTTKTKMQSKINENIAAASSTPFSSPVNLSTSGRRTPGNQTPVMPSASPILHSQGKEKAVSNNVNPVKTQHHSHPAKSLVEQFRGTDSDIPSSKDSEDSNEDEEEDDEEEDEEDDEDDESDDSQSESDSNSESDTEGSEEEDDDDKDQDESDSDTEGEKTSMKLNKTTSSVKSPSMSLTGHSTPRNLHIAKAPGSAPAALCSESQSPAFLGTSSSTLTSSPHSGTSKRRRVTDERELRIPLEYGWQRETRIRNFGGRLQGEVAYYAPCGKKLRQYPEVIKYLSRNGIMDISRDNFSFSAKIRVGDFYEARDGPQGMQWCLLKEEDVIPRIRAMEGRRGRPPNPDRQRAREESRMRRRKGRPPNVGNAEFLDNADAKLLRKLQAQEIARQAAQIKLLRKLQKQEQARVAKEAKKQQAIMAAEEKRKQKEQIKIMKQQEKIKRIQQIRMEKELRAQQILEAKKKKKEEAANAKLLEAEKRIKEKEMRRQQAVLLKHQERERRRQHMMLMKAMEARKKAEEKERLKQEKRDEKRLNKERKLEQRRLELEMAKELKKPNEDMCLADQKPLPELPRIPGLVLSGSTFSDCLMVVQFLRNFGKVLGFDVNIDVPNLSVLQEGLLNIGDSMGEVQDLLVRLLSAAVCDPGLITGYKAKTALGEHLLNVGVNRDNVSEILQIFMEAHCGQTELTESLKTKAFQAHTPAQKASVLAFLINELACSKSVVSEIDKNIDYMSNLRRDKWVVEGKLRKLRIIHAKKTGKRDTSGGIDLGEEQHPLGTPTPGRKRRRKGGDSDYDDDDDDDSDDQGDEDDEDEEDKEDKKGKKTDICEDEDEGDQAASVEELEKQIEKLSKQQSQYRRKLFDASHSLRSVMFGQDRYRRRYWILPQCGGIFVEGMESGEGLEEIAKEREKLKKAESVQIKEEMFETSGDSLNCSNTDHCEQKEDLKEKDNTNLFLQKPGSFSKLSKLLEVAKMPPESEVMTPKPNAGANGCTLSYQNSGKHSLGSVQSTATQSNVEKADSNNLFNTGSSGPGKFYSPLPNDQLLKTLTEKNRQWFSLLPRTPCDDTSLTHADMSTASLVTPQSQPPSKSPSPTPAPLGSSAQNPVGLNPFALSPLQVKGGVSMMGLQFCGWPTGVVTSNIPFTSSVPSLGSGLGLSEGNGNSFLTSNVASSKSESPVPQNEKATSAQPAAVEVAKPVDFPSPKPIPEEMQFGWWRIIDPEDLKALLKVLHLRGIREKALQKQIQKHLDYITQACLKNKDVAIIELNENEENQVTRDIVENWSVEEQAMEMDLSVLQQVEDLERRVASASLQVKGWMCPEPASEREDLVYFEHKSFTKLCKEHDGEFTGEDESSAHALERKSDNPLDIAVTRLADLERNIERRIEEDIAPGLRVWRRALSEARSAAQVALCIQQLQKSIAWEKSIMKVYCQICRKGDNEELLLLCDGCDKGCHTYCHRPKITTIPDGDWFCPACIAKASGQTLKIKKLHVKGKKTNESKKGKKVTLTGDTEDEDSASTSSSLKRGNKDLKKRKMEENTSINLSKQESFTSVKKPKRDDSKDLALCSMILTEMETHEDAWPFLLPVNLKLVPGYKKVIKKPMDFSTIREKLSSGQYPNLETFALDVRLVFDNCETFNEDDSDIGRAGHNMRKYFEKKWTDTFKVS
In short: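 AlphaScreen luminescence quantifies BAZ2B engagement of H3K14Ac peptide; the protein and biotinylated peptide are both at 50 nM final, buffer PBS pH 7.4 with 0.01% Tween-20, all steps at room temperature.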
With COc1ccc(/C(O)=C2/C(=O)C(=O)N(CCN(C)C)C2c2ccccc2)cc1Cl (configuration not stated) the Potency was inconclusive: 89.1 µM [inhibitor, single point]. In the case of COc1ccc(OCC(O)CNC(C)c2ccccc2)cc1 (configuration not stated), the Potency is reported as “inactive”. C#CCOCCOCCOCCNc1nc(N2CCN(C(=O)[C@H](CCCCN)n3cc([C@@H](N)CC(C)C)nn3)CC2)nc(N2CCN(C(=O)[C@H](CCCCN)n3cc([C@@H](N)CC(C)C)nn3)CC2)n1 was tested, and the Potency was inconclusive: 89.1 µM [inhibitor, single point]. In the case of COc1ccc(-c2cccc(NC(=O)COc3ccc(Cl)cc3)c2)nn1, the Potency is reported as inconclusive: 89.1 µM [inhibitor, single point]. For Cc1ccc(-c2csc(N3CCN(c4ccc5nc(-c6ccncc6)n(CCN6CCCCC6)c5c4)CC3)n2)cc1, the Potency was inconclusive: 50.1 µM [inhibitor, partial curve]. CC(C)(C)c1ccc(OCCNC(=O)c2ncn[nH]2)cc1 was tested, and the Potency was active: 11.2 µM. COc1ccc2sc(N(CCCN(C)C)C(=O)c3ccc(S(=O)(=O)N4CCc5ccccc5C4)cc3)nc2c1 was tested, and the Potency was “inactive”. With COCCn1cc(C(=S)N2CCCCC2)c2ccccc21 the Potency was inconclusive: 56.2 µM [inhibitor, partial curve]. In the case of COc1cccc(NC2=C(NCCO)C(=O)c3ccccc3C2=O)c1, the Potency is reported as active: 35.5 µM. In the case of COc1ccc(C(=O)NCC(c2ccc(N(C)C)cc2)N2CCCC2)c(OC)c1 (configuration not stated), the Potency is reported as inconclusive: 39.8 µM [inhibitor, partial curve]. With COCCn1c(C)cc(C(=O)CSc2nnc(C)s2)c1C the Potency was inconclusive: 89.1 µM [inhibitor, single point]. With Cc1c(NC(=O)c2ccc(N3CCCC3)c([N+](=O)[O-])c2)cccc1-c1nc2ccccc2s1 the Potency was “inactive”. In the case of Clc1cccc(C2Nc3cccc4cccc(c34)N2)c1, the Potency is reported as inconclusive: 89.1 µM [inhibitor, single point]. With NC(=O)c1sc2nc(-c3ccccc3)c3c(c2c1N)CCCC3 the Potency was inconclusive: 79.4 µM [inhibitor, partial curve]. With S=C(N=Nc1ccccc1)NNc1ccccc1 the Potency was active: 35.5 µM. CCCN(CC(=O)c1cc(C)n(C)c1C)S(=O)(=O)c1cccc(C(F)(F)F)c1 was tested, and the Potency was inconclusive: 79.4 µM [inhibitor, single point]. Cc1cccc(NCc2nc3ccccc3n2CCOc2ccccc2C)c1 was tested, and the Potency was inconclusive: 15.8 µM [inhibitor, full curve]. Cc1cccc(C)c1NC(=S)NC(C)CCc1ccccc1 (configuration not stated) was tested, and the Potency was inconclusive: 50.1 µM [inhibitor, partial curve]. For CCN(CC)CCn1c2ccccc2c2nc3ccc([N+](=O)[O-])cc3cc21, the Potency was “inactive”. For CCc1ccc(CNC(=O)C2CCN(S(=O)(=O)N3CC(C)CC(C)C3)CC2)cc1 (configuration not stated), the Potency was active: 50.1 µM. C=CCn1c(SCc2nc(N)nc(N(C)C)n2)nnc1-c1cccnc1 was tested, and the Potency was inconclusive: 89.1 µM [inhibitor, single point]. In the case of CCCCCCn1c(N2CCN(c3ccccc3)CC2)nc2c1c(=O)[nH]c(=O)n2C, the Potency is reported as inconclusive: 79.4 µM [inhibitor, single point]. CCCC(=O)NC(=S)Nc1sc2c(c1C(N)=O)CCC2 was tested, and the Potency was “inactive”. For COc1ccc(N=NC2=C(O)CC(C)(C)CC2=O)cc1, the Potency was inconclusive: 70.8 µM [inhibitor, partial curve]. For Cc1ccc(CNC(=O)CCc2c(C)nc3nc(CNC(=O)OC(C)(C)C)nn3c2C)cc1, the Potency was “inactive”. For Cc1cccc(Nc2nc(NCCCN3CCOCC3)nc(N)c2[N+](=O)[O-])c1, the Potency was inconclusive: 100 µM [inhibitor, single point]. In the case of CC(=O)c1cccc(Nc2ccc3cc(S(=O)(=O)N4CCC(C)CC4)ccc3n2)c1, the Potency is reported as “inactive”. For CCOC(=O)c1c(NC(C)=O)sc2c(O)c(Br)cc(Br)c12, the Potency was inconclusive: 50.1 µM [inhibitor, partial curve]. COc1cc(/C=C/c2nc3ccccc3c(=O)[nH]2)cc(Cl)c1O was tested, and the Potency was inconclusive: 100 µM [inhibitor, single point]. CCN(CC(=O)Nc1c(F)cccc1F)C(=O)C1Cc2ccccc2CN1S(=O)(=O)CC (configuration not stated) was tested, and the Potency was “inactive”. In the case of Fc1cccc(/C=N/Nc2cc(N3CCOCC3)ncn2)c1, the Potency is reported as “inactive”. For Cn1c(=O)n(C)c2cc(CN3C(=O)OC(C)(C)C3(C)O)ccc21 (configuration not stated), the Potency was inconclusive: 100 µM [inhibitor, single point]. For Cc1ccc(CC2C(=O)N(CC(=O)O)C(=O)C2C)cc1 (configuration not stated), the Potency was “inactive”. In the case of Cc1ccc(C)n1-c1sccc1C(=O)O, the Potency is reported as active: 17.8 µM. With CC1=NN(C(=O)c2ccccc2F)C(O)(c2ccc(Cl)cc2)C1 (configuration not stated) the Potency was active: 50.1 µM. O=[N+]([O-])c1ccccc1-c1ccc(C(=S)N2CCCCC2)o1 was tested, and the Potency was active: 25.1 µM. In the case of CCOc1cc(NC(=S)Nc2ccccc2)c(OCC)cc1NC(=O)c1ccc(OC)cc1, the Potency is reported as inconclusive: 31.6 µM [inhibitor, partial curve]. In the case of COc1ccc(CCCc2nnc(SCC(=O)Nc3nccs3)n2C)cc1C, the Potency is reported as “inactive”. COc1ccc(N2CCN(C(c3cccs3)C(C)NC(=O)C(=O)N3CCCC3)CC2)cc1 (configuration not stated) was tested, and the Potency was active: 39.8 µM. In the case of CCOc1ccc(NC2c3ccccc3C(=O)N2Cc2ccco2)cc1 (configuration not stated), the Potency is reported as active: 50.1 µM. For O=C(O)/C=C\C(=O)Nc1cccc(NC(=O)c2ccccc2)c1, the Potency was inconclusive: 79.4 µM [inhibitor, single point]. For COC(=O)c1cc(S(=O)(=O)NCCCc2ccco2)c[nH]1, the Potency was inconclusive: 56.2 µM [inhibitor, partial curve]. With CC1Sc2ccc(S(=O)(=O)N3CCN(c4cccc(Cl)c4)CC3)cc2NC1=O (configuration not stated) the Potency was inconclusive: 70.8 µM [inhibitor, single point]. In the case of CC(C)N1CCN(Cc2cccn2-c2nccs2)CC1CCO (configuration not stated), the Potency is reported as inconclusive: 70.8 µM [inhibitor, single point]. CCOc1ccc(Br)cc1S(=O)(=O)N1CCC(C(N)=O)CC1 was tested, and the Potency was “inactive”. In the case of CCOC(=O)CSc1nc(-c2ccncc2)ccc1C#N, the Potency is reported as “inactive”. CC(C)Oc1cccc(C(=O)C2CCCN(Cc3cccn3-c3cccnc3)C2)c1 (configuration not stated) was tested, and the Potency was inconclusive: 44.7 µM [inhibitor, partial curve]. In the case of Cc1cccc(NC(=O)C2CCCN(S(=O)(=O)c3cccc4nonc34)C2)c1 (configuration not stated), the Potency is reported as “inactive”. In the case of O=C(CSc1nc(O)cc(=O)n1-c1ccccc1)Nc1nc2ccccc2s1, the Potency is reported as inconclusive: 89.1 µM [inhibitor, single point]. CN(C1=C(N2CCCCC2)C(=O)c2ccccc2C1=O)c1ccccc1 was tested, and the Potency was active: 2.82 µM. For CC(C)CNC(=O)C(=O)NCc1ccccc1, the Potency was inconclusive: 79.4 µM [inhibitor, single point]. Cc1ccc(C2c3[nH]c4ccccc4c3CCN2C(=O)Nc2ccc(C)c(C)c2)cc1 (configuration not stated) was tested, and the Potency was inconclusive: 25.1 µM [inhibitor, single point]. With Nc1ccccc1Nc1cc(-c2ccccc2)nn1-c1ccccc1 the Potency was active: 35.5 µM. For Cc1ccc2cc3cc(C(=O)NCCCN4CCCCCC4)oc3nc2c1, the Potency was “inactive”. For Cc1ccc(OCCNC(=O)c2cccc(S(=O)(=O)N3CCN(C)CC3)c2)cc1, the Potency was “inactive”. In the case of COc1ccccc1C1Nc2cccc3cccc(c23)N1, the Potency is reported as active: 50.1 µM. For COc1ccc(N2CCN(C(=O)c3cc4c(=O)n(Cc5ccccc5)ccc4nc3C)CC2)cc1, the Potency was inconclusive: 44.7 µM [inhibitor, partial curve] and inconclusive: 11.2 µM [inhibitor, partial curve, poor fit]. With COc1ccc(N2CCN(C(=O)CN(c3cccc(Br)c3)S(C)(=O)=O)CC2)cc1 the Potency was inconclusive: 89.1 µM [inhibitor, single point]. In the case of CCCN1CCn2c3c(c4cc(Br)ccc42)CCCC31 (configuration not stated), the Potency is reported as inconclusive: 50.1 µM [inhibitor, partial curve]. Cc1ccc(OC(C)C(=O)Nc2ccc3c(c2)n(C)c(=O)n3C)c(C)c1 (configuration not stated) was tested, and the Potency was active: 56.2 µM. In the case of Fc1ccccc1-n1c(-c2ccc3ccccc3n2)n[nH]c1=S, the Potency is reported as inconclusive: 79.4 µM [inhibitor, single point]. Cc1c(Cl)cccc1-n1c(CCC(=O)O)ccc1-c1cccs1 was tested, and the Potency was “inactive”. With CCSc1nc2n(n1)C(c1ccc(CC)cc1)C(C(=O)Nc1ccccc1OC)=C(C)N2 (configuration not stated) the Potency was “inactive”. In the case of CC(=O)N(/N=C1\Sc2ccccc2C1=O)c1ccccc1C, the Potency is reported as inconclusive: 28.2 µM [inhibitor, partial curve]. With O=[N+]([O-])c1ccccc1-c1cc(-c2cc(Cl)ccc2O)n[nH]1 the Potency was inconclusive: 79.4 µM [inhibitor, single point]. In the case of O=C(CSC(=S)N1CCCC1)N1CCN(S(=O)(=O)c2cccc(F)c2)CC1, the Potency is reported as “inactive”. For COc1ccc(CNc2nc(-c3ccccc3)nn2C(=O)c2ccc([N+](=O)[O-])cc2)cc1, the Potency was inconclusive: 31.6 µM [inhibitor, partial curve]. With CC1Nc2nc(N(C)C)[nH]c(=O)c2NC1C (configuration not stated) the Potency was inconclusive: 89.1 µM [inhibitor, single point]. With Clc1ccc(CSc2ccc(-c3ccco3)nn2)cc1 the Potency was “inactive”. With CCN(Cc1ccccc1)C(=O)C1CCN(C/C(C)=C/c2ccccc2)CC1 the Potency was inconclusive: 89.1 µM [inhibitor, single point]. With COc1ccc(OC)c(S(=O)(=O)Nc2c(NC3CCCCC3)c3ccccc3oc2=O)c1 the Potency was inconclusive: 79.4 µM [inhibitor, single point]. In the case of C#CCOCCOCCOCCNc1nc(N2CCN(C(=O)Cn3cc(CC(C)O)nn3)CC2)nc(N2CCN(C(=O)[C@H](C)n3cc(CCCN=C(N)N)nn3)CC2)n1 (some centres not stated), the Potency is reported as active: 79.4 µM.
Also: nearly all actives have a fitted effect of over 60% in size.
Potency is read from the fitted curve at half-maximal effect; tags tell the direction and shape of the fitted curve.
